From the supplement of paper PMC8728848
The list shows a part of the results.

Key:
Assay in all cases: glycan array binding signal (z-score within array); higher = stronger binding
Conditions in all cases: glycan notation: IUPAC condensed, linker removed
[1] = target: Gal6S(b1-4)Glc
Procedure, shortened: (§1)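 Negative Z-scores can be read as non-binding. The Z-score is calculated within each array and then averaged across arrays of one protein sequence at different concentrations or buffers and across linkers. Arrays, 3228 in all, were curated from the Consortium for Functional Glycomics database and kept only where the protein sequence was available.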

[2] = target: Gal6S(b1-4)Glc6S
Procedure, shortened: as §1

[3] = target: Gal6S(b1-4)GlcNAc
Procedure, shortened: as §1

[4] = target: Gal6S(b1-4)GlcNAc6S
Procedure, shortened: as §1

[5] = target: GalNAc(a1-3)Gal
Procedure, shortened: as §1

[6] = target: GalNAc(a1-3)GalNAc
Procedure, shortened: as §1

[7] = target: GalNAc(b1-3)Gal
Procedure, shortened: as §1

[8] = target: GalNAc(b1-3)Gal(a1-4)Gal(b1-4)GlcNAc
Procedure, shortened: as §1

[9] = target: GalNAc(b1-3)GalNAc
Procedure, shortened: as §1

[10] = target: GalNAc(b1-4)GlcNAc
Procedure, shortened: as §1

[11] = target: Glc(a1-4)Glc
Procedure, shortened: as §1

[12] = target: Glc(a1-6)Glc(a1-6)Glc
Procedure, shortened: as §1

[13] = target: Glc(b1-4)Glc
Procedure, shortened: as §1

[14] = target: Glc(b1-6)Glc
Procedure, shortened: as §1

[15] = target: GlcA(b1-3)Gal
Procedure, shortened: as §1

[16] = target: GlcA(b1-3)GlcNAc
Procedure, shortened: as §1

[17] = target: GlcA(b1-6)Gal
Procedure, shortened: as §1

[18] = target: GlcNAc(a1-3)Gal(b1-4)GlcNAc
Procedure, shortened: as §1

[19] = target: GlcNAc(a1-6)Gal(b1-4)GlcNAc
Procedure, shortened: as §1

[20] = target: GlcNAc(b1-2)Gal(b1-3)GalNAc
Procedure, shortened: as §1

[21] = target: GlcNAc(b1-2)Man(a1-3)[GlcNAc(b1-2)Man(a1-6)]Man(b1-4)GlcNAc(b1-4)GlcNAc
Procedure, shortened: as §1

[22] = target: GlcNAc(b1-3)Gal
Procedure, shortened: as §1

[23] = target: GlcNAc(b1-3)Gal(b1-3)GalNAc
Procedure, shortened: as §1

[24] = target: GlcNAc(b1-3)Gal(b1-4)Glc
Procedure, shortened: as §1

[25] = target: GlcNAc(b1-3)Gal(b1-4)GlcNAc
Procedure, shortened: as §1

[26] = target: GlcNAc(b1-3)Gal(b1-4)GlcNAc(b1-3)Gal(b1-4)GlcNAc
Procedure, shortened: as §1

[27] = target: GlcNAc(b1-3)GalNAc
Procedure, shortened: as §1

[28] = target: GlcNAc(b1-3)Man
Procedure, shortened: as §1

[29] = target: GlcNAc(b1-3)[GlcNAc(b1-4)][GlcNAc(b1-6)]GlcNAc
Procedure, shortened: as §1

[30] = target: GlcNAc(b1-3)[GlcNAc(b1-6)]Gal(b1-4)GlcNAc
Procedure, shortened: as §1

[31] = target: GlcNAc(b1-3)[GlcNAc(b1-6)]GalNAc
Procedure, shortened: as §1

[32] = target: GlcNAc(b1-4)Gal(b1-4)GlcNAc
Procedure, shortened: as §1

[33] = target: GlcNAc(b1-4)GlcNAc
Procedure, shortened: as §1

[34] = target: GlcNAc(b1-4)GlcNAc(b1-4)GlcNAc
Procedure, shortened: as §1

[35] = target: GlcNAc(b1-4)GlcNAc(b1-4)GlcNAc(b1-4)GlcNAc(b1-4)GlcNAc
Procedure, shortened: as §1

[36] = target: GlcNAc(b1-4)GlcNAc(b1-4)GlcNAc(b1-4)GlcNAc(b1-4)GlcNAc(b1-4)GlcNAc
Procedure, shortened: as §1

[37] = target: GlcNAc(b1-4)[GlcNAc(b1-6)]GalNAc
Procedure, shortened: as §1

[38] = target: GlcNAc(b1-6)Gal(b1-4)GlcNAc
Procedure, shortened: as §1

B1: Ficolin A (Rattus norvegicus), Q9WTS8 (protein)
chain: MWWPMLWAFPVLLCLCSSQALGQESGACPDVKIVGLGAQDKVAVIQSCPSFPGPPGPKGEPGSPAGRGERGLQGSPGKMGPPGSKGEPGTMGPPGVKGEKGERGTASPLGQKELGDALCRRGPRSCKDLLTRGIFLTGWYTIYLPDCRPLTVLCDMDVDGGGWTVFQRRVDGSINFYRDWDSYKRGFGNLGTEFWLGNDYLHLLTANGNQELRVDLREFQGQTSFAKYSSFQVSGEQEKYKLTLGQFLEGTAGDSLTKHNNMAFSTHDQDNDTNGGKNCAALFHGAWWYHDCHQSNLNGRYLPGSHESYADGINWLSGRGHRYSYKVAEMKIRAS
glycan array binding signal (z-score) [1]: 0.006
glycan array binding signal (z-score) [2]: 0.07
glycan array binding signal (z-score) [3]: -0.005
glycan array binding signal (z-score) [4]: -0.104
glycan array binding signal (z-score) [5]: 0.04
glycan array binding signal (z-score) [6]: -0.099
glycan array binding signal (z-score) [7]: -0.063
glycan array binding signal (z-score) [8]: -0.058
glycan array binding signal (z-score) [9]: -0.094
glycan array binding signal (z-score) [10]: -0.074
glycan array binding signal (z-score) [11]: -0.077
glycan array binding signal (z-score) [12]: -0.094
glycan array binding signal (z-score) [13]: -0.11
glycan array binding signal (z-score) [14]: 0.025
glycan array binding signal (z-score) [15]: -0.071
glycan array binding signal (z-score) [16]: -0.049
glycan array binding signal (z-score) [17]: -0.07
glycan array binding signal (z-score) [18]: -0.083
glycan array binding signal (z-score) [19]: 17.3
glycan array binding signal (z-score) [20]: -0.062
glycan array binding signal (z-score) [21]: -0.048
glycan array binding signal (z-score) [22]: -0.109
glycan array binding signal (z-score) [23]: -0.101
glycan array binding signal (z-score) [24]: -0.056
glycan array binding signal (z-score) [25]: -0.094
glycan array binding signal (z-score) [26]: -0.045
glycan array binding signal (z-score) [27]: -0.114
glycan array binding signal (z-score) [28]: -0.09
glycan array binding signal (z-score) [29]: 0.055
glycan array binding signal (z-score) [30]: -0.081
glycan array binding signal (z-score) [31]: -0.07
glycan array binding signal (z-score) [32]: -0.084
glycan array binding signal (z-score) [33]: -0.079
glycan array binding signal (z-score) [34]: -0.09
glycan array binding signal (z-score) [35]: -0.106
glycan array binding signal (z-score) [36]: -0.084
glycan array binding signal (z-score) [37]: -0.056
glycan array binding signal (z-score) [38]: -0.087
